Experimental data from the supplement of paper PMC4604168 (melanoma cell lines).
Some of the results follow. Most values come without repeats; read them as rough.

Legend:
Test in all cases: cell count relative to DMSO control; melanoma cells; higher = more viable cells
Details in all cases: library dose: low library concentration; 72 h
[1] = test system: MZ2-MEL
[2] = test system: MeWo
[3] = test system: RPMI7951
[4] = test system: RVH-421
[5] = test system: SkMel28
[6] = test system: SkMel2
[7] = test system: SkMel30
[8] = test system: SkMel5
[9] = test system: UACC257
[10] = test system: UACC62
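Further: cell number obtained by counting DAPI-stained nuclei in high-throughput microscope images with image analysis software, screen run in 1,536-well plates.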

SMILES | cell count [1] | cell count [2] | cell count [3] | cell count [4] | cell count [5] | cell count [6] | cell count [7] | cell count [8] | cell count [9] | cell count [10]
CC(=O)O[C@@]12CO[C@@H]1C[C@H](O)[C@@]1(C)C(=O)[C@H](O)C3=C(C)[C@@H](OC(=O)[C@H](O)[C@@H](NC(=O)OC(C)(C)C)c4ccccc4)C[C@@](O)([C@@H](OC(=O)c4ccccc4)[C@H]21)C3(C)C [Docetaxel] + Cn1cncc1[C@@](N)(c1ccc(Cl)cc1)c1ccc2c(c1)c(-c1cccc(Cl)c1)cc(=O)n2C [tipifarnib] (first compound 0.0001 µM, partner dose 0.01 µM) | 48.9% | 40.8% | 44.1% | 88.2% | 46% | 39.1% | 32.3% | 72% | 39.8% | 55.5%
CC(=O)c1c(C)c2cnc(Nc3ccc(N4CCNCC4)cn3)nc2n(C2CCCC2)c1=O [palbociclib] + NC(=O)Nc1cc(-c2cccc(F)c2)sc1C(=O)N[C@H]1CCCNC1 [AZD7762] (first compound 0.04 µM, partner dose 0.02 µM) | 88.8% | 74.9% | 62.5% | 91% | 92.4% | 96.7% | 77.5% | 78.6% | 79.7% | 87.7%
CC(=O)c1c(C)c2cnc(Nc3ccc(N4CCNCC4)cn3)nc2n(C2CCCC2)c1=O [palbociclib] + c1cc(-c2cnn3cc(-c4ccc(OCCN5CCCCC5)cc4)cnc23)ccn1 [Dorsomorphin] (first compound 0.04 µM, partner dose 0.4 µM) | 93.7% | 96.2% | 77.3% | 92.9% | 75.2% | 97.9% | 71.5% | 74.2% | 48.9% | 70.3%
Nc1ncn([C@H]2C[C@H](O)[C@@H](CO)O2)c(=O)n1 [decitabine] + COc1cc(Nc2ncc(F)c(Nc3ccc4c(n3)NC(=O)C(C)(C)O4)n2)cc(OC)c1OC [Tamatinib] (first compound 0.1 µM, partner dose 0.4 µM) | 84.9% | 93.7% | 70.1% | 97.3% | 81.7% | 99.4% | 98.6% | 87.6% | 45.9% | 60.3%
Nc1ncn([C@H]2C[C@H](O)[C@@H](CO)O2)c(=O)n1 [decitabine] + C[C@@H]1CCN(C(=O)CC#N)C[C@@H]1N(C)c1ncnc2[nH]ccc12 [CP690550] (first compound 0.1 µM, partner dose 1 µM) | 82.2% | 97.7% | 80.6% | 85.7% | 94.3% | 97.2% | 109% | 90.6% | 75% | 70.8%
CC(=O)O[C@@]12CO[C@@H]1C[C@H](O)[C@@]1(C)C(=O)[C@H](O)C3=C(C)[C@@H](OC(=O)[C@H](O)[C@@H](NC(=O)OC(C)(C)C)c4ccccc4)C[C@@](O)([C@@H](OC(=O)c4ccccc4)[C@H]21)C3(C)C [Docetaxel] + O=C(O)C(=O)Nc1sc2c(c1C(=O)O)CCNC2 [TCS401] (first compound 0.0001 µM, partner dose 1.66667 µM) | 43.8% | 51.4% | 37.1% | 77.5% | 56.3% | 41.1% | 33.4% | 87.8% | 45.1% | 42.5%
Nc1ncn([C@H]2C[C@H](O)[C@@H](CO)O2)c(=O)n1 [decitabine] + CCN(CC)CCCCNc1ncc2cc(-c3cc(OC)cc(OC)c3)c(NC(=O)NC(C)(C)C)nc2n1 [PD173074] (first compound 0.1 µM, partner dose 0.1 µM) | 91% | 97.5% | 70% | 73.6% | 83.5% | 120% | 91.5% | 94.9% | 103% | 78.9%
Nc1nc(F)nc2c1ncn2[C@@H]1O[C@H](CO)[C@@H](O)[C@@H]1O [fludarabine] + O=C1NC(=O)/C(=C/c2ccc(-c3ccc(F)cc3O)o2)S1 [AS252424] (first compound 0.2 µM, partner dose 1 µM) | 103% | 30.5% | 95.3% | 109% | 66% | 5.1% | 13.6% | 55.4% | 109% | 78%
CC(=O)c1c(C)c2cnc(Nc3ccc(N4CCNCC4)cn3)nc2n(C2CCCC2)c1=O [palbociclib] + COc1cc(N2CCC(N3CCN(C)CC3)CC2)ccc1Nc1ncc(Cl)c(Nc2ccccc2S(=O)(=O)C(C)C)n1 [NVP-TAE684] (first compound 0.04 µM, partner dose 0.08 µM) | 86% | 63.4% | 59.3% | 96.2% | 71.4% | 76.8% | 59% | 72.1% | 54.5% | 70.4%
Nc1nc(F)nc2c1ncn2[C@@H]1O[C@H](CO)[C@@H](O)[C@@H]1O [fludarabine] + OCCn1cc(-c2cnc3nnn(Cc4ccc5ncccc5c4)c3n2)cn1 [PF04217903] (first compound 0.2 µM, partner dose 1 µM) | 98% | 28.3% | 86.8% | 96.1% | 75.1% | 5.34% | 18% | 46.9% | 75.1% | 73.4%
CC(=O)O[C@@]12CO[C@@H]1C[C@H](O)[C@@]1(C)C(=O)[C@H](O)C3=C(C)[C@@H](OC(=O)[C@H](O)[C@@H](NC(=O)OC(C)(C)C)c4ccccc4)C[C@@](O)([C@@H](OC(=O)c4ccccc4)[C@H]21)C3(C)C [Docetaxel] + O=S(=O)(c1ccccc1)N(CC(F)(F)F)c1ccc(C(O)(C(F)(F)F)C(F)(F)F)cc1 [T0901317] (first compound 0.0001 µM, partner dose 1.4 µM) | 48.3% | 35.3% | 48.7% | 79.9% | 44.5% | 40.2% | 37% | 73.5% | 37.2% | 38.2%
Nc1ncn([C@H]2C[C@H](O)[C@@H](CO)O2)c(=O)n1 [decitabine] + c1cc(-c2cnn3cc(-c4ccc(OCCN5CCCCC5)cc4)cnc23)ccn1 [Dorsomorphin] (first compound 0.1 µM, partner dose 0.4 µM) | 99.3% | 101% | 80.5% | 97.2% | 91% | 114% | 87.3% | 114% | 123% | 87.8%
Nc1ncn([C@H]2C[C@H](O)[C@@H](CO)O2)c(=O)n1 [decitabine] + CO[C@@H]1[C@H](N(C)C(=O)c2ccccc2)C[C@H]2O[C@]1(C)n1c3ccccc3c3c4c(c5c6ccccc6n2c5c31)C(=O)NC4 [Midostaurin] (first compound 0.1 µM, partner dose 0.08 µM) | 74.9% | 72% | 55.6% | 69.6% | 114% | 80.9% | 129% | 100% | 75.4% | 78.7%
CC(=O)O[C@@]12CO[C@@H]1C[C@H](O)[C@@]1(C)C(=O)[C@H](O)C3=C(C)[C@@H](OC(=O)[C@H](O)[C@@H](NC(=O)OC(C)(C)C)c4ccccc4)C[C@@](O)([C@@H](OC(=O)c4ccccc4)[C@H]21)C3(C)C [Docetaxel] + COc1cc2c(Oc3ccc4[nH]c(C)cc4c3F)ncnc2cc1OCCCN1CCCC1 [cediranib] (first compound 0.0001 µM, partner dose 0.4 µM) | 53.3% | 46.8% | 37.6% | 66.3% | 29.4% | 45.8% | 34.9% | 83.5% | 40.3% | 45.9%
Nc1ccn([C@@H]2O[C@H](CO)[C@@H](O)C2(F)F)c(=O)n1 [gemcitabine] + Cc1cc(N2CCOCC2)cc2[nH]c(-c3c(NC[C@@H](O)c4cccc(Cl)c4)cc[nH]c3=O)nc12 [BMS536924] (first compound 0.0004 µM, partner dose 0.2 µM) | 108% | 96.9% | 115% | 112% | 102% | 88.8% | 115% | 98.8% | 71.9% | 99.4%
Nc1nc(F)nc2c1ncn2[C@@H]1O[C@H](CO)[C@@H](O)[C@@H]1O [fludarabine] + NCC(=O)Nc1ccc(-n2nc(C(F)(F)F)cc2-c2ccc3c(ccc4ccccc43)c2)cc1 [OSU03012] (first compound 0.2 µM, partner dose 1 µM) | 93.7% | 26.6% | 91.2% | 108% | 56.2% | 4.42% | 15.8% | 51.2% | 65.9% | 82%
Nc1ccn([C@@H]2O[C@H](CO)[C@@H](O)C2(F)F)c(=O)n1 [gemcitabine] + O=c1cc(-c2cccc3c2Sc2ccccc2S3)oc(N2CCOCC2)c1 [KU55933] (first compound 0.0004 µM, partner dose 1 µM) | 109% | 106% | 96.4% | 105% | 95.3% | 100% | 73.8% | 110% | 78.6% | 86.1%
Nc1ncn([C@H]2C[C@H](O)[C@@H](CO)O2)c(=O)n1 [decitabine] + COc1cc(N2CCC(N3CCN(C)CC3)CC2)ccc1Nc1ncc(Cl)c(Nc2ccccc2S(=O)(=O)C(C)C)n1 [NVP-TAE684] (first compound 0.1 µM, partner dose 0.08 µM) | 89.6% | 90.2% | 94.1% | 61.6% | 68.6% | 88.2% | 86.5% | 89.4% | 88.7% | 82.3%
Nc1ccn([C@@H]2O[C@H](CO)[C@@H](O)C2(F)F)c(=O)n1 [gemcitabine] + c1cc(-c2cnn3cc(-c4ccc(OCCN5CCCCC5)cc4)cnc23)ccn1 [Dorsomorphin] (first compound 0.0004 µM, partner dose 0.4 µM) | 92.4% | 98.3% | 97.7% | 152% | 97.7% | 121% | 119% | 88.6% | 80.4% | 108%
